According to patent publication KR20220059924A (dated 2022):

T1: 개 Tie2 단백질 (dog, UniProt A0A8I3S0B4 27-1128)
T1 construct: whole, on cells; also called dog Tie2
T1 sequence: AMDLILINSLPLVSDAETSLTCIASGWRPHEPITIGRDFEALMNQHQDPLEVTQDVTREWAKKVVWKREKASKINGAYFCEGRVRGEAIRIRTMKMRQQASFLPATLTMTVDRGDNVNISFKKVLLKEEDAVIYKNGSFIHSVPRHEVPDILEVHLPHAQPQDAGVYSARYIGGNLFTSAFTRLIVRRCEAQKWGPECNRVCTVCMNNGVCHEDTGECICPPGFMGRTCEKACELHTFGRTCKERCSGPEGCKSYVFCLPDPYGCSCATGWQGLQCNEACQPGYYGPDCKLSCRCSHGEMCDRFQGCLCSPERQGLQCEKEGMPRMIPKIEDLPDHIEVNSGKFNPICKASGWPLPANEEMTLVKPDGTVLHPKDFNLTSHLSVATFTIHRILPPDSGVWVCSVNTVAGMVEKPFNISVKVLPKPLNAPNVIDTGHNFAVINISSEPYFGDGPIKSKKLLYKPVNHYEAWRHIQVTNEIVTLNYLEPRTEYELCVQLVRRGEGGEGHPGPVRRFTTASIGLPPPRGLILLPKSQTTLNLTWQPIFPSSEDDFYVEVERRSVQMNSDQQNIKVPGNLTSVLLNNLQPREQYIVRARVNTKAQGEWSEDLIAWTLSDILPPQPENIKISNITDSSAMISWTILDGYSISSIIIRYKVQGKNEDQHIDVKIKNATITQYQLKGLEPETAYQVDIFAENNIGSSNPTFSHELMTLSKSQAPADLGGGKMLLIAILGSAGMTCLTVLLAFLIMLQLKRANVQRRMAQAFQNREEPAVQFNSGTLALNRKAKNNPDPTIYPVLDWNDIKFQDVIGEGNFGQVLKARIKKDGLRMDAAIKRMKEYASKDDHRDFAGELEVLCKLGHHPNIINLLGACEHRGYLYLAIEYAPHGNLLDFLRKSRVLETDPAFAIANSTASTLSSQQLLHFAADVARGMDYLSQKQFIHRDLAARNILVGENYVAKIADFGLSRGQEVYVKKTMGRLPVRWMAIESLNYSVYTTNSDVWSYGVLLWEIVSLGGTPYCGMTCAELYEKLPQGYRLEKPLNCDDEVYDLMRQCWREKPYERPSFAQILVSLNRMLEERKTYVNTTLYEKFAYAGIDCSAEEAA

T2: 랫 Tie2 단백질 (rat, UniProt A0ABK0L6J5 19-1116)
T2 construct: whole, on cells; also called rat Tie2
T2 sequence: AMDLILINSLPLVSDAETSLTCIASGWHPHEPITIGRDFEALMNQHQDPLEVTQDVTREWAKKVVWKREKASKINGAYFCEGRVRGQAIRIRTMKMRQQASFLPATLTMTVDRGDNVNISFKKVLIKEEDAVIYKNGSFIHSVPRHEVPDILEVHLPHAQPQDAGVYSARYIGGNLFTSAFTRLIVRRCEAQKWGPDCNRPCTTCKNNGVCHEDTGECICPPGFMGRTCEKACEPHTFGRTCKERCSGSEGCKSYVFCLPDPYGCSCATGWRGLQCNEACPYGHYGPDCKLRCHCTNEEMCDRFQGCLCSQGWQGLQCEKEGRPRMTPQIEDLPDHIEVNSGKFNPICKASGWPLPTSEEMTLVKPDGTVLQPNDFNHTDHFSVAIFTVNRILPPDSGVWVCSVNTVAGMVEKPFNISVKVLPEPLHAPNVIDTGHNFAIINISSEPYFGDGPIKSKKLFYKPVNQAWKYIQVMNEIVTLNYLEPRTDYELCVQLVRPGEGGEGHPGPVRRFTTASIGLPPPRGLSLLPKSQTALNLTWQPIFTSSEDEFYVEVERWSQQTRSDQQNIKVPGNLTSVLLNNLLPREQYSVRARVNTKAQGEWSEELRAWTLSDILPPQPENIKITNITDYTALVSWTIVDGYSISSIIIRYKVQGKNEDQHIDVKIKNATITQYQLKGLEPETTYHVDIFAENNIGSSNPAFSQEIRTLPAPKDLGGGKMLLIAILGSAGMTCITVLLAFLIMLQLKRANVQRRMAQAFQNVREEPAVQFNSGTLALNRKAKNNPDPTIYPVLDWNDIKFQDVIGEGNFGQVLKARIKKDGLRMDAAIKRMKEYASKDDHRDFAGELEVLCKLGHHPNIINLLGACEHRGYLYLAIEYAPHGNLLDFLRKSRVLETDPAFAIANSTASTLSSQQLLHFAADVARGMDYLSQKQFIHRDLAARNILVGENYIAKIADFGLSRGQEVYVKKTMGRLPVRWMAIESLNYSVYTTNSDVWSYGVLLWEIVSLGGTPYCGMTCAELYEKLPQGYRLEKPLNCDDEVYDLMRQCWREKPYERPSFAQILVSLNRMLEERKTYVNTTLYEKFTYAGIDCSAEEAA

T3: 마우스 Tie2 단백질 (mouse, UniProt Q02858 23-1122)
T3 construct: whole, on cells; also called mouse Tie2
T3 sequence (looked up): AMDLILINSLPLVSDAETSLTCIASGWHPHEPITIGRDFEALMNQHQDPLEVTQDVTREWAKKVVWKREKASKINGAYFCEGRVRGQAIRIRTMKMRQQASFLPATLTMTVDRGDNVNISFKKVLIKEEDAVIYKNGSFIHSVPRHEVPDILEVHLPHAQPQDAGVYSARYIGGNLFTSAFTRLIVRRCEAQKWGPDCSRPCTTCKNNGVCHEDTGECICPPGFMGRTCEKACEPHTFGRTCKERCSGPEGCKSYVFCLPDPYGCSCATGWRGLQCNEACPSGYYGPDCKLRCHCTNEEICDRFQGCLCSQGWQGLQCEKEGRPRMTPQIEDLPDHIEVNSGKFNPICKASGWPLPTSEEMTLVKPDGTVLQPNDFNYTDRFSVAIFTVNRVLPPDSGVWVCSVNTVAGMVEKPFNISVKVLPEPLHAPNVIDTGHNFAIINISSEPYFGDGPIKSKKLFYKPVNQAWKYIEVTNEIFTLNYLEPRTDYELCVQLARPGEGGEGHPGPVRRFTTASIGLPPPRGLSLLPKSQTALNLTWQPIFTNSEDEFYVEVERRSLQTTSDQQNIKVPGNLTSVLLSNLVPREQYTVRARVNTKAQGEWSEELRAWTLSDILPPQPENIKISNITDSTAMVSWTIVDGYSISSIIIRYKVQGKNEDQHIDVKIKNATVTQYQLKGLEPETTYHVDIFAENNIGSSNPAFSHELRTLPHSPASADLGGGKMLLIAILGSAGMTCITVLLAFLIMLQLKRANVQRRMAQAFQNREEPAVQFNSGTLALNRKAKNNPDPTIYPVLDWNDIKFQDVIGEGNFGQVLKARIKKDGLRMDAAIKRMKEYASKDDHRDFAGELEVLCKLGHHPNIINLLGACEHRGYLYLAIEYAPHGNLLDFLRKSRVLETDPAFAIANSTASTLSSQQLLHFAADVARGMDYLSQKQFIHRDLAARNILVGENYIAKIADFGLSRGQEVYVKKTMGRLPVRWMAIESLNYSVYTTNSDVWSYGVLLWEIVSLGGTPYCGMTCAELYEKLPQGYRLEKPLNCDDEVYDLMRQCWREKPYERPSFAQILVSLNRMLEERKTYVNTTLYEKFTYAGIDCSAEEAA


Assays:
[1] = molecular target: T1, 개 Tie2 단백질; assay: flow cytometry, HEK293T cells transfected with dog Tie2
[2] = molecular target: T2, 랫 Tie2 단백질; assay: flow cytometry, HEK293T cells transfected with rat Tie2
[3] = molecular target: T3, 마우스 Tie2 단백질; assay: flow cytometry, HEK293T cells transfected with mouse Tie2

Binder | binding result [1] | binding result [2] | binding result [3]
Ang1mab1 (antibody, human IgG1, kappa, Its matched control is called IgG1 control; also called 제1 기본 항체; 기본 항체 Ang1mab1) heavy: QVQLVQSGGGVVQPGRSLRLSCAASGLTFSNYAMHWVRQAPGKGLEWVAVISYDGENKYYADSVKGRFTISRDNSKNMLQLQMNRLRSEDTAVYYCATPKGGALEIWGQGTVITVSS[sequence of human IgG1 constant region omitted] light: DIQMTQSPDSLAVSLGERATINCKSSQSVLYSSNNKNYLAWYQQKPGQPPNLLMYWASTRESGVPDRFSGSGSGTDFTLTISSLQAEDVAVYYCQQYYSAPITFGQGTRLEIKRTVAAPSVFIFPPSDEQLKSGTASVVCLLNNFYPREAKVQWKVDNALQSGNSQESVTEQDSKDSTYSLSSTLTLSKADYEKHKVYACEVTHQGLSSPVTKSFNRGEC | no binding (tested: 5ug/ml) | no binding (tested: 5ug/ml) | no binding (tested: 5ug/ml)
Ang1mab4 (antibody, human IgG4 S228P, kappa, also called 제1 기본 항체; 기본 항체 Ang1mab4) heavy: QVQLVQSGGGVVQPGRSLRLSCAASGLTFSNYAMHWVRQAPGKGLEWVAVISYDGENKYYADSVKGRFTISRDNSKNMLQLQMNRLRSEDTAVYYCATPKGGALEIWGQGTVITVSSASTKGPSVFPLAPCSRSTSESTAALGCLVKDYFPEPVTVSWNSGALTSGVHTFPAVLQSSGLYSLSSVVTVPSSSLGTKTYTCNVDHKPSNTKVDKRV[sequence of human IgG4 Fc with S228P (EU numbers) omitted] light: DIQMTQSPDSLAVSLGERATINCKSSQSVLYSSNNKNYLAWYQQKPGQPPNLLMYWASTRESGVPDRFSGSGSGTDFTLTISSLQAEDVAVYYCQQYYSAPITFGQGTRLEIKRTVAAPSVFIFPPSDEQLKSGTASVVCLLNNFYPREAKVQWKVDNALQSGNSQESVTEQDSKDSTYSLSSTLTLSKADYEKHKVYACEVTHQGLSSPVTKSFNRGEC | no binding (tested: 5ug/ml) | no binding (tested: 5ug/ml) | no binding (tested: 5ug/ml)
Ang1mab4(H1G01A) (antibody, human IgG4 S228P, kappa, Variant of Ang1mab4; also called 변이 항체) heavy: QVQLVQSGGGVVQPGRSLRLSCAASALTFSNYAMHWVRQAPGKGLEWVAVISYDGENKYYADSVKGRFTISRDNSKNMLQLQMNRLRSEDTAVYYCATPKGGALEIWGQGTVITVSSASTKGPSVFPLAPCSRSTSESTAALGCLVKDYFPEPVTVSWNSGALTSGVHTFPAVLQSSGLYSLSSVVTVPSSSLGTKTYTCNVDHKPSNTKVDKRV[sequence of human IgG4 Fc with S228P (EU numbers) omitted] light: DIQMTQSPDSLAVSLGERATINCKSSQSVLYSSNNKNYLAWYQQKPGQPPNLLMYWASTRESGVPDRFSGSGSGTDFTLTISSLQAEDVAVYYCQQYYSAPITFGQGTRLEIKRTVAAPSVFIFPPSDEQLKSGTASVVCLLNNFYPREAKVQWKVDNALQSGNSQESVTEQDSKDSTYSLSSTLTLSKADYEKHKVYACEVTHQGLSSPVTKSFNRGEC | no binding (tested: 5ug/ml) | no binding (tested: 5ug/ml) | no binding (tested: 5ug/ml)

Next, values leading:

binding result [1] | binding result [2] | binding result [3] | Binder
no binding (tested: 5ug/ml) | no binding (tested: 5ug/ml) | no binding (tested: 5ug/ml) | Ang1mab4(H1S05A) (antibody, human IgG4 S228P, kappa, Variant of Ang1mab4; frameworks and constant regions from Ang1mab4; also called 변이 항체) heavy: QVQLVQSGGGVVQPGRSLRLSCAASGLTFANYAMHWVRQAPGKGLEWVAVISYDGENKYYADSVKGRFTISRDNSKNMLQLQMNRLRSEDTAVYYCATPKGGALEIWGQGTVITVSSASTKGPSVFPLAPCSRSTSESTAALGCLVKDYFPEPVTVSWNSGALTSGVHTFPAVLQSSGLYSLSSVVTVPSSSLGTKTYTCNVDHKPSNTKVDKRV[sequence of human IgG4 Fc with S228P (EU numbers) omitted] light: DIQMTQSPDSLAVSLGERATINCKSSQSVLYSSNNKNYLAWYQQKPGQPPNLLMYWASTRESGVPDRFSGSGSGTDFTLTISSLQAEDVAVYYCQQYYSAPITFGQGTRLEIKRTVAAPSVFIFPPSDEQLKSGTASVVCLLNNFYPREAKVQWKVDNALQSGNSQESVTEQDSKDSTYSLSSTLTLSKADYEKHKVYACEVTHQGLSSPVTKSFNRGEC
no binding (tested: 5ug/ml) | no binding (tested: 5ug/ml) | no binding (tested: 5ug/ml) | Ang1mab4(H1L02A) (antibody, human IgG4 S228P, kappa, Variant of Ang1mab4; frameworks and constant regions from Ang1mab4; also called 변이 항체) heavy: QVQLVQSGGGVVQPGRSLRLSCAASGATFSNYAMHWVRQAPGKGLEWVAVISYDGENKYYADSVKGRFTISRDNSKNMLQLQMNRLRSEDTAVYYCATPKGGALEIWGQGTVITVSSASTKGPSVFPLAPCSRSTSESTAALGCLVKDYFPEPVTVSWNSGALTSGVHTFPAVLQSSGLYSLSSVVTVPSSSLGTKTYTCNVDHKPSNTKVDKRV[sequence of human IgG4 Fc with S228P (EU numbers) omitted] light: DIQMTQSPDSLAVSLGERATINCKSSQSVLYSSNNKNYLAWYQQKPGQPPNLLMYWASTRESGVPDRFSGSGSGTDFTLTISSLQAEDVAVYYCQQYYSAPITFGQGTRLEIKRTVAAPSVFIFPPSDEQLKSGTASVVCLLNNFYPREAKVQWKVDNALQSGNSQESVTEQDSKDSTYSLSSTLTLSKADYEKHKVYACEVTHQGLSSPVTKSFNRGEC
